{
  "source": "PubChem BioAssay AID686978",
  "about": "(National Center for Advancing Translational Sciences (NCATS), 2013)",
  "note": "About 64,000 (15%) of roughly 420,000 compounds were called active. Inconclusive results, whose numbers are uncertain, are shown with a selection of clear calls. The call rests on the fitted dose curve; in most records, active means well fitted inhibition curve with a large enough effect; inconclusive means small, poorly fitted or top-dose-only effect; inactive means flat fitted curve, though single readings scatter. No potency is given beside an inconclusive call; the fits are too rough.",
  "data": [
    {"assay": "qHTS for Inhibitors of human tyrosyl-DNA phosphodiesterase 1 (TDP1): qHTS in cells in absence of CPT; further: nearly all actives have a fitted effect of over 55% in size; further: potency means the concentration at half of the fitted maximal effect; tags describe the fitted curve by direction and shape; on activity change, negative = growth inhibition: on the % scale 0 is the no-effect control and ±100 the full control effect", "details": "DT40 Tdp1-/- hTDP1 cells, no CPT, ATP luminescence, 48 h; activity change, negative = growth inhibition: at 46.2 µM (top of the series) unless noted", "how_it_was_run": "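Chicken DT40 Tdp1-/- cells stably complemented with human TDP1 were seeded at 400 cells/well with DMSO in place of 20 nM camptothecin. After compound pinning, cells grew at least 48 hr at 37 °C; viability read by CellTiter-Glo luminescence.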", "values": [
      {"compound": "CN(C(=O)CSc1cc(Cl)ccc1Cl)C1CCS(=O)(=O)C1", "note": "(centres undefined)", "activity change, negative = growth inhibition": "inactive: -9.81%"},
      {"compound": "O=C(O)c1ccc(N/N=C/c2ccc(-c3cc(Cl)ccc3Cl)o2)cc1", "Potency": "inconclusive [inhibitor, single point]"},
      {"compound": "CC(C)c1ccc(C(=O)N2CCCN(C(=O)c3ccc(C(C)C)cc3)CC2)cc1", "activity change, negative = growth inhibition": "inactive: -0.444%"},
      {"compound": "COc1ccc2cc(S(=O)(=O)NCCCN3CCOCC3)ccc2c1", "Potency": "inconclusive [inhibitor, partial curve]"},
      {"compound": "Cc1ccc(N(C)/N=C/c2ccc(Cl)cc2Cl)nn1", "activity change, negative = growth inhibition": "inconclusive: -31.3% [inhibitor]"},
      {"compound": "CCOC(=O)c1c(NC(=O)C(C)S(=O)(=O)c2cn(CC)c3ccccc23)sc2c1CCCC2", "note": "(centres undefined)", "Potency": "active: 6.51 µM"},
      {"compound": "Cc1oc(C)c2c(=O)ccc3c(c12)OC(N)=C(C#N)C3c1ccccc1", "note": "(centres undefined)", "Potency": "inconclusive [inhibitor, single point]"},
      {"compound": "Cc1ccc2nc(-c3cccc(Br)c3)c(Cc3ccccc3)n2c1", "Potency": "inconclusive [inhibitor, single point]"},
      {"compound": "CCOC(=O)C12CC1/C(=N\\O)c1ccccc1O2", "note": "(centres undefined)", "activity change, negative = growth inhibition": "inactive: -1.96%"},
      {"compound": "CC(C)(C)C(=O)N1c2ccccc2CCc2ccccc21", "Potency": "inconclusive [inhibitor, single point]"},
      {"compound": "N#C/C(=C/c1ccc(N2CCCCC2)cc1)c1cccc(F)c1", "Potency": "inconclusive [inhibitor, partial curve, poor fit]"},
      {"compound": "CCN(C[C@H]1N[C@@](Cc2ccccc2)(C(=O)OC)[C@H]2C(=O)N(Cc3ccccc3)C(=O)[C@@H]12)C(=O)COc1ccccc1", "Potency": "active: 18.4 µM"},
      {"compound": "CCn1cc(C(=O)N2CCN(c3ccccc3)CC2)c(=O)c2cc(S(=O)(=O)N(C)C3CCCCC3)ccc21", "activity change, negative = growth inhibition": "inactive: -25.7%"},
      {"compound": "CCOc1ccc(Sc2cc(C(=O)NCc3ccc(F)cc3)c3ccccc3n2)cc1", "activity change, negative = growth inhibition": "inconclusive: -31.9% [inhibitor]"},
      {"compound": "CC(=O)CSc1nc(-c2ccccc2)[nH]c1S(=O)(=O)c1ccc(C)cc1", "Potency": "active: 3.26 µM"},
      {"compound": "Cc1cc(C(=O)NC2CCCCC2C)c2ccccc2n1", "note": "(centres undefined)", "activity change, negative = growth inhibition": "inactive: -6.42%"},
      {"compound": "COc1cccc2sc(N3CCN(C(=O)c4ccc([N+](=O)[O-])o4)CC3)nc12", "Potency": "active: 18.4 µM"},
      {"compound": "O=c1[nH]c(=O)c2nc(-c3ccc(Cl)cc3)cnc2[nH]1", "activity change, negative = growth inhibition": "inconclusive: -31.4% [inhibitor]"},
      {"compound": "O=C(CSc1ncn(-c2ccccc2)n1)Nc1nncs1", "activity change, negative = growth inhibition": "inactive: 0.815%"},
      {"compound": "COc1ccccc1C(=O)NCC(=O)N/N=C/c1cc(Br)ccc1OC(=O)/C=C\\c1ccco1", "Potency": "inconclusive [inhibitor, single point]"},
      {"compound": "COCCn1c(=O)c(-c2cccs2)nc2cnc(Oc3cccc(Cl)c3)nc21", "Potency": "inconclusive [inhibitor, single point]"},
      {"compound": "Cc1cc(C)c(C2=CC(=O)C[C@H](c3ccc4c(c3)OCO4)C2)c(C)c1", "Potency": "inconclusive [inhibitor, single point]"},
      {"compound": "Cn1c(C(=O)OCC(=O)NCc2ccco2)cc2sccc21", "Potency": "inconclusive [inhibitor, single point]"},
      {"compound": "C#CCn1c(O)c(N=NC(=O)CNC(=O)/C=C/c2ccccc2)c2ccccc21", "Potency": "inconclusive [inhibitor, single point]"},
      {"compound": "Cn1ncc2c(NCc3cccc(Cl)c3)ncnc21", "Potency": "inconclusive [inhibitor, single point]"},
      {"compound": "Cc1ccc(S(=O)(=O)NCc2ccco2)c(C)c1C", "activity change, negative = growth inhibition": "inconclusive: -32.1% [inhibitor]"},
      {"compound": "Cc1cccc(C)c1Nc1c(-c2ccsc2)nc2ncccn12", "Potency": "inconclusive [inhibitor, single point]"},
      {"compound": "COc1ccc(-n2cc(C(=O)Nc3cc([N+](=O)[O-])ccc3OC)c3ccccc3c2=O)cc1", "activity change, negative = growth inhibition": "inactive: -17.7%"},
      {"compound": "O=C(N[C@@H]1c2ccccc2C2(CCN(C(=O)c3ccc4c(c3)OCCO4)CC2)[C@H]1O)c1cccnc1", "activity change, negative = growth inhibition": "inactive: -4.42%"},
      {"compound": "O=C(CN1C(=O)CCSc2ccc(S(=O)(=O)N3CCCC3)cc21)Nc1cccc(Cl)c1", "Potency": "inconclusive [inhibitor, single point]"},
      {"compound": "O=C(c1ccc2c(c1)OCO2)C1CCCN(C(=O)c2cnn(Cc3ccccc3)c2)C1", "note": "(centres undefined)", "Potency": "inconclusive [inhibitor, partial curve]"},
      {"compound": "COc1ccc(Br)cc1Cn1nnc(C(=O)Nc2ccc3c(c2)OCCO3)c1N", "Potency": "active: 25.9 µM"},
      {"compound": "Cc1ccc(N/C(N)=N/c2nc(C)cc(C)n2)cc1", "Potency": "active: 20.6 µM"},
      {"compound": "O=C(Nc1nc(-c2cccc([N+](=O)[O-])c2)cs1)C(c1ccccc1)c1ccccc1", "Potency": "inconclusive [inhibitor, single point]"},
      {"compound": "Cc1ccc2nc(Cl)c(CNCc3ccccc3)cc2c1", "Potency": "inconclusive [inhibitor, single point]"},
      {"compound": "Cc1ccc(-c2noc(CCC(=O)Nc3ccc(F)cc3Cl)n2)cc1", "Potency": "inconclusive [inhibitor, single point]"},
      {"compound": "Cc1nc2sc(-c3ccccc3)cc2c(=O)n1N", "Potency": "inconclusive [inhibitor, partial curve]"},
      {"compound": "CCOC(=O)c1ccc(NC(=O)c2sc3nc(N4CCOCC4)c4c(c3c2N)CCCC4)cc1", "Potency": "active: 16.4 µM"},
      {"compound": "COc1ccc(/C=C/C(O)=C2/C(=O)N(C)C3(C)CC2c2ccccc2O3)cc1", "note": "(centres undefined)", "Potency": "active: 20.6 µM"},
      {"compound": "CCCC1=C(C(=O)OCC)C(c2ccco2)n2ncnc2N1", "note": "(centres undefined)", "Potency": "inconclusive [inhibitor, single point]"},
      {"compound": "CCc1ccc(C(C)NC(=S)NC2CCCCC2)cc1", "note": "(centres undefined)", "Potency": "inconclusive [inhibitor, single point]"},
      {"compound": "CC(=O)NC(Cc1c[nH]c2ccccc12)C(=O)N1CCN(S(=O)(=O)c2ccccc2)CC1", "note": "(centres undefined)", "activity change, negative = growth inhibition": "inactive: -4.58%"},
      {"compound": "O=C(CCc1[nH]c2ccccc2c1Sc1ccccc1)N(CCO)CCO", "Potency": "inconclusive [inhibitor, single point]"},
      {"compound": "O=C(N/C(=C/c1cccc(Br)c1)C(=O)N1CCCCC1)c1ccco1", "Potency": "inconclusive [inhibitor, single point]"},
      {"compound": "COc1cccc(C(=O)NCc2ccc3c(c2)cc(C)n3C)c1", "Potency": "inconclusive [inhibitor, single point]"},
      {"compound": "O=C(c1cccc(S(=O)(=O)N2CCN(c3ccc(F)cc3)CC2)c1)N1CCCC1", "Potency": "inconclusive [inhibitor, partial curve, poor fit]"},
      {"compound": "O=C(CSc1c2c(nc3cc(Cl)ccc13)CCCC2)NCCCN1CCOCC1", "Potency": "inconclusive [inhibitor, single point]"},
      {"compound": "COc1ccc(S(=O)(=O)CC2(O)CCN(C(=O)C(C)(C)C)CC2)cc1", "activity change, negative = growth inhibition": "inactive: 5.78%"},
      {"compound": "Cc1cc(C(=O)OCC(=O)Nc2ccc(F)c(F)c2F)c(C)o1", "Potency": "inconclusive [inhibitor, single point]"},
      {"compound": "CCCc1nc2c(sc3nc4c(cc32)COC(C)(C)C4)c(=O)n1Cc1ccco1", "Potency": "inconclusive [inhibitor, single point]"},
      {"compound": "O=C(c1ccc2c(=O)n(C3CCCC3)c(=S)[nH]c2c1)N1CCN(C2CCCCC2)CC1", "Potency": "inconclusive [inhibitor, partial curve]"},
      {"compound": "COc1ccc(OCC(O)CN2CCCCC2)cc1", "note": "(centres undefined)", "activity change, negative = growth inhibition": "inactive: 3.92%"},
      {"compound": "COc1ccc(OC)c2c(/C=C/c3ccc(N(C)C)cc3)ccnc12", "Potency": "active: 6.31 µM"},
      {"compound": "COc1ccc(NC(=O)c2cc(-c3ccccc3)nc3c2c(C)nn3-c2ccccc2)c(OC)c1", "Potency": "inconclusive [inhibitor, single point]"},
      {"compound": "COc1ccc(NC(=O)c2cccc(N3CCCS3(=O)=O)c2)cc1", "Potency": "inconclusive [inhibitor, single point]"},
      {"compound": "COc1cccc(/C=C2/SC(=S)N(CCCC(=O)Nc3ccc(O)cc3)C2=O)c1", "Potency": "inconclusive [inhibitor, single point]"},
      {"compound": "COc1ccccc1CNC(=O)c1cc(-c2ccc(F)cc2C)n[nH]1", "Potency": "inconclusive [inhibitor, single point]"},
      {"compound": "CC(C)(C)OC(=O)N1CCCC(C(=O)Nc2cccc(C(=O)N3CCCC3)c2)C1", "note": "(centres undefined)", "activity change, negative = growth inhibition": "inactive: -20.6%"},
      {"compound": "O=C(Cn1cnc2c(nnn2Cc2ccc(F)cc2)c1=O)NCc1ccc(F)cc1", "Potency": "inconclusive [inhibitor, single point]"},
      {"compound": "CCCCn1c(SCC#N)nc2ccccc2c1=O", "Potency": "inconclusive [inhibitor, single point]"},
      {"compound": "CCNc1nc(N)c(C(=C(C#N)C#N)c2ccccc2)s1", "Potency": "inconclusive [inhibitor, single point]"},
      {"compound": "O=[N+]([O-])c1ccc(COc2cccnc2)cc1", "Potency": "inconclusive [inhibitor, single point]"},
      {"compound": "CN1CCc2c(sc(/N=C/c3c[nH]c4ccccc34)c2C#N)C1", "Potency": "inconclusive [inhibitor, single point]"},
      {"compound": "COc1ccccc1C(=O)NCCn1cc(SCC(=O)NCc2ccco2)c2ccccc21", "Potency": "inconclusive [inhibitor, single point]"},
      {"compound": "CCOc1cc(-c2nc(-c3ccccc3)c(-c3cc([N+](=O)[O-])ccc3C)[nH]2)ccc1O", "Potency": "active: 23.1 µM"},
      {"compound": "CC1CCc2[nH]c3ccc(C(=O)N(C)CC(=O)Nc4ccc(F)cc4)cc3c2C1", "note": "(centres undefined)", "Potency": "active: 10.3 µM"},
      {"compound": "O=S(=O)(c1cccc(C(F)(F)F)c1)N1CCC(c2nc3ccccc3[nH]2)CC1", "Potency": "active: 23.1 µM"},
      {"compound": "COc1ccc(NS(=O)(=O)c2ccc3c(c2)CCN3C(=O)C2CC2)cc1OC", "Potency": "active: 5.17 µM"},
      {"compound": "COc1cccc(Cn2c(=O)c(C)nc3cnc(OCc4ccccc4)nc32)c1", "Potency": "active: 18.4 µM"}
    ]}
  ]
}
